From the supplement of paper PMC3334620
The full ranking holds about 33,000 sequences; the median of “E-score (-0.5 to 0.5)” is about -0.035, and the highest 2% start at about 0.35. The list shows a part of the results.

target: T1, Pdr3 (UniProt P33200); assay: PBM E-score (8-mer binding enrichment) (E-score (-0.5 to 0.5)); higher = stronger / more preferred TF binding; most listed sequences are background and not binding sites; details: protein concentration: 200 nM; construct: GST-full length
T1 sequence: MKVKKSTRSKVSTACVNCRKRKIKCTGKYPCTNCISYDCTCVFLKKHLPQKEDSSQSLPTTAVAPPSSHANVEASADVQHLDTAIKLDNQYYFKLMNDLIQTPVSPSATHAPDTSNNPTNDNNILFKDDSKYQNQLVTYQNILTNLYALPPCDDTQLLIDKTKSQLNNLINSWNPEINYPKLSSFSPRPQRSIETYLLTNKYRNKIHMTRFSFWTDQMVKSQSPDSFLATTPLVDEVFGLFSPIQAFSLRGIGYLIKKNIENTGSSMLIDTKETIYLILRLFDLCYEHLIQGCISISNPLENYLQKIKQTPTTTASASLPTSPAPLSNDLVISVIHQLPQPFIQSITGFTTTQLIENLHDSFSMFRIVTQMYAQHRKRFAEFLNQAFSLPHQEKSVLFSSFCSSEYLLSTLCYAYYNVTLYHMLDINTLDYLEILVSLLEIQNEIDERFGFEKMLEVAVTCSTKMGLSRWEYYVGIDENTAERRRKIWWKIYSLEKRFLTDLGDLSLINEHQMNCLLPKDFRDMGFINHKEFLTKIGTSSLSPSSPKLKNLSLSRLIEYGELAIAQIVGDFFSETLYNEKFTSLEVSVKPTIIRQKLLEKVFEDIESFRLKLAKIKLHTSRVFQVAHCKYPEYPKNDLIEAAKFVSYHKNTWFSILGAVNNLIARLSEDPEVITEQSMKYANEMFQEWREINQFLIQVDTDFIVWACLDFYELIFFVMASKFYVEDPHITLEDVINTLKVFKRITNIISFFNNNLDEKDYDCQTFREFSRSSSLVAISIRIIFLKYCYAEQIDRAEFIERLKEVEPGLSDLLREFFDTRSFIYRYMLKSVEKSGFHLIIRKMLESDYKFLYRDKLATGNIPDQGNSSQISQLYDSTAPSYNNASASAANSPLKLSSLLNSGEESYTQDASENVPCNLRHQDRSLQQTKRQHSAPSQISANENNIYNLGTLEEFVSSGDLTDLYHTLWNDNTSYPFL
Outline: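 For each ungapped eight-base word taken together with its reverse complement, the Universal PBM Analysis Suite assigned an E-score. Binding data came from GST-tagged yeast transcription factors, applied at about 100-200 nM, on universal all-10-mer Agilent arrays made double-stranded by primer extension. Fluorescent anti-GST marked bound protein, and scans were normalised with masliner.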

Row | Sequence | PBM E-score
1 | AATACTTA | -0.0377
2 | ACCTGGGA | -0.0488
3 | CAGTTTAA | -0.226
4 | CTCCTCAG | -0.224
5 | GTCATCGA | -0.174
6 | TCCGTCGA | 0.39
7 | TCGAAACA | 0.0608
8 | CTTCCAGC | -0.209
9 | CTATAAGA | -0.0975
10 | GCCCTTAC | -0.0109
11 | ACCACCAG | -0.117
12 | CAGGGGCC | -0.0384
13 | ACTCGAGA | 0.136
14 | GCGGGCAC | 0.216
15 | AGAGGTCG | 0.0531
16 | AGCTTTTC | -0.0147
17 | CTTGTAAC | 0.0659
18 | AGGTTACG | -0.084
19 | CTCGAGTA | 0.0611
20 | TCCTGCGA | 0.0321
21 | ATGCTTTA | -0.199
22 | GGCGCGCA | 0.218

Row | Sequence | PBM E-score
23 | CGGAGGTA | 0.214
24 | CGCTGTGA | -0.0994
25 | AGCCGGTA | 0.199
26 | CCCCCCAG | -0.372
27 | GGCTTGAC | -0.0993
28 | ACAATGAA | -0.0708
29 | CGCGACGC | 0.0669
30 | TCAAGCGA | -0.0814
31 | CCGGCGCA | 0.321
32 | CAAGACAC | 0.0119
33 | CGTACTCA | 0.0823
34 | GGGACAGA | 0.00619
35 | GATTACAA | -0.0153
36 | ATTGGTCG | 0.032
37 | AGTGCAAT | -0.197
38 | CCTCGCGC | -0.0155
39 | ATACCTGA | 0.0144
40 | CTCATAAA | -0.00626
41 | CCTAGACA | -0.339
42 | CGATTTGC | 0.0904
43 | ATCTAGAG | -0.177
44 | ATCTATGA | -0.106

Row | Sequence | PBM E-score
45 | AGGCCCCG | 0.019
46 | CAGGTGAC | -0.246
47 | CGGTCCTC | 0.0158
48 | CGAAACTA | 0.107
49 | GGTCATGA | 0.0794
50 | ATGTGTAG | 0.0654
51 | CTCGTGTA | -0.109
52 | GCGATCGC | 0.144
53 | GGAGGTAA | -0.0212
54 | AGAGCTCA | -0.00784
55 | ACCTCATA | -0.0284
56 | AGCAAGAC | -0.134
57 | CGGAGGAC | 0.283
58 | AACGGGTA | 0.143
59 | AAAAGTAG | -0.0943
60 | CACCGACA | 0.0198
61 | AGAGTGAG | -0.163
62 | ACTTGTCA | -0.0157
63 | AGACGCGA | -0.0931
64 | CTTGCGTA | -0.236
65 | ACATCCCG | 0.415
66 | ACACGCCG | 0.289

Row | Sequence | PBM E-score
67 | GTGCCCGA | -0.0135
68 | AAGTACTG | -0.201
69 | AAACACAA | -0.138
70 | ACAGCATC | -0.0602
71 | AATGAGGA | -0.177
72 | CTTGCAAG | 0.112
73 | ATAGCGTA | -0.0208
74 | ATATGTTA | -0.207
75 | TACCCTGA | -0.251
76 | CTGACGAC | -0.0802
77 | ATGGGAAG | -0.0606
78 | AACTTGTG | 0.067
79 | AGAATCTA | -0.115
80 | CGTCCAAA | 0.194
81 | AAACGATA | -0.116
82 | ATTTTAGG | -0.125
83 | ATTAATTG | 0.00256
84 | ACGTTCCC | 0.0163
85 | CCAATAGC | -0.181
86 | CTGGACAG | 0.053
87 | CACACCTC | 0.0191
88 | TCAAAGGA | -0.133

Row | Sequence | PBM E-score
89 | CGCAATGC | -0.0405
90 | ACCACAGT | 0.085
91 | ATGTTATG | -0.00203
92 | GAATCTAC | -0.0589
93 | CTTAGTTC | 0.064
94 | ACCGTTCT | -0.0192
95 | AAGACGGC | 0.142
96 | GAGTGCAA | 0.0493
97 | ATTGTAAC | -0.0193
98 | CCAGGACG | -0.224
99 | GCAGGTCC | 0.0273
100 | CCACGAAC | 0.0802
101 | ACATGACG | -0.0466
102 | GTAGATAC | -0.175
103 | CACCACTA | 0.0244
104 | CAGGACCC | -0.136
105 | CGCAGTGA | 0.0203
106 | GACACGCA | -0.0604
107 | ACTAAAAG | 0.00579
108 | GCTAGATA | 0.0703
109 | GCAGAAAC | -0.0854
110 | AGATCGCG | 0.16
